Experimental data taken from PubChem BioAssay AID504706 (National Center for Advancing Translational Sciences (NCATS), 2011).
The campaign covered roughly 320,000 compounds. About 200 (0.062%) were called active. Inconclusive results, whose numbers are uncertain, are shown with a selection of clear calls. Calls come from the whole dose curve; as a rule, active = well fitted activation curve with a large enough effect; inconclusive = small, poorly fitted or top-dose-only effect; inactive = no such curve, though single readings can be large or run the other way. Potencies of inconclusive entries are left out as doubtful fits.

assay: qHTS assay for re-activators of p53 using a Luc reporter; details: H1299 p53-A138V BP100-luciferase reporter, luminescence, 24 h; series mostly up to 92.2 µM; note: nearly all actives have a fitted effect of over 45% in size
Method in brief: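 p53-null H1299 cells stably carrying temperature-sensitive p53-A138V and a BP100-luciferase reporter were pinned with compounds (4-point, 1:5 series) and held 24 hrs at 37 deg C. Luminescence was read 10 min after detection reagent.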
Potency is the fitted concentration of half-maximal effect; tags give direction and shape of the fitted curve.

Structure (SMILES)	Potency
CC(C)CC(=O)NC(=S)Nc1ccc(N2CCCC2)c(Cl)c1	inactive
CC(=O)Oc1ccc2c(=O)c(-c3ccccc3)coc2c1	inconclusive [activator, full curve, poor fit]
CN(C(=O)c1cccc(NC(=O)c2cccs2)c1)c1ccccc1	inactive
COc1ccc(-c2noc(-c3ccccc3Cl)n2)cc1OC	inconclusive [activator, full curve, poor fit]
Cc1ccccc1OCC(=O)N1CCc2ccccc2C1	inconclusive [activator, single point]
COc1ccc2cc(-c3ccccc3F)ncc2c1	inconclusive [activator, partial curve, poor fit]
O=[N+]([O-])c1cc(Cl)cc(/C=N/Nc2nc3ccccc3s2)c1O	inactive
COc1ccc(CNC(=O)Nc2ccc(C)cc2)cc1	inconclusive [activator, single point]
Cc1cc(C)cc(NC(=O)c2ccc(NC(=O)C3C4CC5OC(=O)C3C5C4)cc2)c1 (centres undefined)	inactive
Cc1cc(/C=C2\SC(=S)NC2=O)c(C)n1-c1ccc(O)cc1	inconclusive [activator, partial curve, poor fit]
O=C(Nc1ccc2c(c1)OCO2)c1ccc(CO)cc1	inconclusive [activator, partial curve, poor fit]
Cc1ccc2nc(NC(=O)c3ccc4ncsc4c3)sc2c1	inconclusive [activator, full curve, poor fit]
COc1ccc(CCNC(=O)c2cccc(S(=O)(=O)N3CCCCC3)c2)cc1	inactive
Cc1nnc(NC(=O)c2cc(-c3ccncc3)nc3c(C)cccc23)s1	inconclusive [activator, partial curve, poor fit]
Cc1scc(C(=O)N/N=C/c2ccco2)c1C	inconclusive [activator, partial curve, poor fit]
O=C(CSc1nnc(-c2ccc(O)cc2)o1)Nc1ccc2c(c1)OCCO2	inconclusive [activator, partial curve, poor fit]
O=C(O)C1CCCCC1C(=O)NCCc1c[nH]c2ccccc12 (centres undefined)	inconclusive [activator, single point]
Cc1[nH]c2ccc(C(=O)OC(C)C(=O)NC3(C#N)CCCCC3)cc2c1C (centres undefined)	inactive
CCOn1c(=O)c(-c2cc3ccccc3o2)[n+]([O-])c2ccccc21	inconclusive [activator, full curve, poor fit]
C#CCNC(=O)C1=C[C@@H](C2CC2)[C@H](CCCO)[C@@H](OCC)O1	inactive
COc1ccc(-n2nc(C(=O)Nc3ccc(OC)c(OC)c3)c3c4ccccc4n(C)c3c2=O)cc1	inactive
O=C(c1ccccc1)c1ccc(N2CCOCC2)c(F)c1	inconclusive [activator, partial curve, poor fit]
Cc1cccc(NC(=O)/C(C#N)=C/c2ccccc2O)n1	inconclusive [activator, full curve, poor fit]
O=C(NC(=S)Nc1ccccc1O)c1ccc(Cl)cc1Cl	inconclusive [activator, full curve, poor fit]
Clc1ccc(-c2cn3cccnc3n2)cc1	inconclusive [activator, full curve]

Structure (SMILES)	Potency
Nc1nnnn1CC(=O)N/N=C/c1cc([N+](=O)[O-])ccc1O	inactive
Cc1cccc(NC(=O)c2ccc3ccccc3n2)c1C	inconclusive [activator, full curve, poor fit]
c1ccc(-n2cnc3cc(NCc4cccs4)ccc32)cc1	inconclusive [activator, full curve, poor fit]
COc1ncccc1-c1nnn(-c2ccccc2)n1	inactive
COc1ccc(CCNC(=O)COC(=O)C2CC2)cc1OC	inactive
Nc1sccc1C(=O)c1ccc(Cl)cc1	inconclusive [activator, partial curve, poor fit]
COCCCNC(=O)COC(=O)c1ccc(-c2nc3ccccc3s2)s1	inconclusive [activator, partial curve, poor fit]
NCC(=O)Nc1ccc(Br)cc1	inactive
Cc1ccc(-n2nc3cc(C)c(N)cc3n2)cc1	inconclusive [activator, full curve, poor fit]
Cc1cc2n(n1)SC(Nc1cccc3ccccc13)N2 (centres undefined)	inactive
Cc1cc2nc(SCCN3CCCC3)[nH]c2cc1C	inconclusive [activator, single point]
O=C(Nc1ccc2c(c1)OCO2)C1CCCN(c2nc3ccccc3s2)C1 (centres undefined)	inconclusive [activator, partial curve, poor fit]
CNC(=O)c1[nH]nc2c1CCc1cc(OC)ccc1-2	inactive
O=C(CCN1C(=O)c2ccccc2C1=O)Nc1nc2ccccc2s1	inconclusive [activator, single point]
O=C(CSc1nc(-c2ccc(Cl)cc2)cs1)Nc1cccc([N+](=O)[O-])c1	inconclusive [activator, partial curve, poor fit]
COc1ccc(NC(=S)N2CCN(S(=O)(=O)c3ccc(F)cc3)CC2)cc1	inactive
COc1cccc(C(=O)Nc2sc3c(c2C(=O)O)CCCC3)c1	inconclusive [activator, full curve, poor fit]
COc1ccccc1NC(=S)NCCSc1ccc(Cl)cc1	inactive
N#Cc1cnc2nc(SCc3ccccc3)nn2c1	inconclusive [activator, full curve, poor fit]
Nc1cccc(-c2nc3ccc(C(=O)c4ccccc4)cc3[nH]2)c1	inconclusive [activator, full curve, poor fit]
CSc1ncccc1C(=O)OCC(=O)c1cc(C)n(C)c1C	inconclusive [activator, full curve, poor fit]
CN(c1nc(-c2ccc(Br)cc2)cs1)C1CCS(=O)(=O)C1 (centres undefined)	inconclusive [activator, single point]
c1ccc(-c2nnc(-c3ccccc3)o2)cc1	inconclusive [activator, full curve, poor fit]
CNC(=O)COC(=O)CCC(=O)c1cccs1	inactive
CCN(CC)S(=O)(=O)c1cc(F)ccc1OC	inactive

Structure (SMILES)	Potency
CC(C)CC1NC(=O)c2cc(Cl)ccc2-n2c1nc1ccccc1c2=O (centres undefined)	inactive
N/C(=N\OS(=O)(=O)c1ccc(Cl)cc1)c1ccccn1	inconclusive [activator, partial curve, poor fit]
Cc1nonc1NC(=O)c1oc2ccccc2c1C	inconclusive [activator, partial curve, poor fit]
Cc1cc(Cl)ccc1OCCCC(=O)NO	inactive
Cc1cc(NCC2CCCCC2)nc2ccccc12	inconclusive [activator, single point]
Cc1nc2ccc(NC(=O)c3cc([N+](=O)[O-])cc([N+](=O)[O-])c3Cl)cc2s1	inconclusive [activator, single point]
Cc1cccc(OCC(=O)Nc2cccc(O)c2)c1	inconclusive [activator, full curve, poor fit]
CCOc1ccccc1N1CCN(CC(O)COc2ccc3c(C)cc(=O)oc3c2)CC1 (centres undefined)	inconclusive [activator, single point]
Cc1ccc(-c2nc(N)n(S(C)(=O)=O)n2)cc1	inconclusive [activator, single point]
O=C(NNc1ncnc2sccc12)c1ccc(Cl)cc1	inactive
O=c1c2ccccc2nc(-c2ccccc2)n1CCN1CCOCC1	inactive
O=C(NCCCn1ccnc1)Nc1cccc2ccccc12	inactive
O=C(Nc1ccc(N2CCOCC2)cc1)C1CC1	inconclusive [activator, partial curve, poor fit]
Cc1c(NC(=O)/C(C#N)=C/c2ccc(-c3ccc(Cl)cc3)o2)c(=O)n(-c2ccccc2)n1C	inactive
S=C(NCc1ccccn1)Nc1ccc(Cl)cc1Cl	inconclusive [activator, single point]
CCOC(=O)c1sc2nc3c(cc2c1N)COC(C(C)C)C3 (centres undefined)	inconclusive [activator, partial curve, poor fit]
COc1ccc2c(C=O)c[nH]c2c1	inactive
COC(/C(=N/O)c1ccc(Cl)cc1)c1ccccc1 (centres undefined)	inconclusive [activator, full curve, poor fit]
CCn1cnc2c(cnn2-c2ccccc2)c1=O	inconclusive [activator, full curve, poor fit]
CC(CC(=O)N(C)c1c(N)n(Cc2ccccc2)c(=O)[nH]c1=O)c1ccccc1 (centres undefined)	inactive
Cc1ccc(O)c(CNc2nc3ccccc3n2C(C)C)c1	inconclusive [activator, partial curve, poor fit]
Cc1cccc(Nc2nc(N)nc(CSc3nccn3C)n2)c1	inconclusive [activator, partial curve, poor fit]
Cc1ccc(CNc2oc(COc3ccccc3Cl)nc2C#N)cc1	inactive
Cc1ccc(Nc2nnc(SCC(=O)NCc3ccco3)s2)cc1	inconclusive [activator, single point]
